# This is one part of the list. Shown are side measurements of this screen, not its main read-out; they come without a call. For some assays here: The list favours compounds with an active or inconclusive main result. Potencies come from curve fits of mixed quality, noted in brackets.
# Key:
# [1] = qHTS drug screen for cell cycle checkpoint inhibitors in PARPi-resistant BRCA-mutant ovarian cancer cell lines. (AID 1963452); settings: PEO1/OlaR viability, CellTiter-Glo luminescence, 96 h
# How it was run: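 PEO1, PEO4 and PEO1/OlaR ovarian cancer cells, 600 per well, exposed 96 h at 37C to a dilution series. Viability read by CellTiter-Glo luminescence, normalized to DMSO and empty wells; activity summarized as Z-AUC.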
# [2] = qHTS for identification of novel therapeutic agents for treatment of microphthalmiaassociated transcription factor (MiT) renal cell carcinoma (RCC) (AID 1963991); settings: CellTiter-Glo, 48 h; for z-score: stronger effect = lower value
# How it was run: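 Viability of three TFE3-fusion renal carcinoma lines measured by CellTiter-Glo after 48 h treatment with each of 1912 compounds at 11 concentrations. Responses scaled between DMSO (100%) and empty wells (0%) before curve fitting.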
# [3] = measured here: PEO1 parental viability
# [4] = TFE3-RCC viability, measured here: UOK124 cell viability
# [5] = TFE3-RCC viability, measured here: UOK145 cell viability
# [6] = TFE3-RCC UOK109 viability, measured here: UOK109 Z-AUC
# [7] = TFE3-RCC viability, measured here: UOK124 Z-AUC
# [8] = TFE3-RCC viability, measured here: UOK145 Z-AUC
# Tags tell the direction and shape of the fitted curve.
smiles,measurement,setting,value
Cc1[nH]ncc1-c1cc2nc([C@@H]3CC4CCN3CC4)[nH]c(=O)c2s1,AC50,[1]; [3],"15.5 µM [falling, partial curve]"
same,AC50,[1]; measured here: PEO4 viability,"17.4 µM [falling, single point]"
COC1=CC(C)=C[C@@H](C)[C@@H](O)[C@@H](C)CC(C)=CC=C[C@H](OC)[C@H]([C@@H](C)[C@@H](O)[C@H](C)[C@@]2(O)C[C@@H](O)[C@H](C)[C@@H](C(C)C)O2)OC1=O,AC50,[2]; [4],"23.5 µM [falling, partial curve, poor fit]"
same,AC50,[2]; [5],"0.00743 µM [falling, full curve]"
CN[C@@H]1C[C@H]2O[C@@](C)([C@@H]1OC)n1c3ccccc3c3c4c(c5c6ccccc6n2c5c31)C(=O)NC4,AC50,[1]; [3],"0.195 µM [falling, full curve]"
same,AC50,[1]; measured here: PEO4 viability,"0.0977 µM [falling, full curve]"
O=C(Oc1ccc([N+](=O)[O-])cc1)N1CCN(Cc2cccc(Oc3ccccc3)c2)CC1,AC50,[1]; [3],"24.5 µM [falling, partial curve, poor fit]"
same,z-score,[2]; [6],-0.801
same,z-score,[2]; [7],0.364
same,AC50,[2]; [4],"37.2 µM [falling, partial curve, poor fit]"
same,z-score,[2]; [8],-0.675
same,AC50,[2]; [5],"9.35 µM [falling, full curve]"
CCNC(=O)CC1N=C(c2ccc(Cl)cc2)c2cc(OC)ccc2-n2c(C)nnc21 (centres undefined),AC50,[1]; [3],"19.5 µM [falling, partial curve, poor fit]"
same,z-score,[2]; [6],0.0501
same,z-score,[2]; [7],0.344
same,z-score,[2]; [8],-0.383
same,AC50,[2]; [5],"23.5 µM [falling, single point]"
O=c1[nH]c2ccc(Cl)cc2c(N[C@@H]2CN3CCC2CC3)c1-c1nc2ccccc2[nH]1,AC50,[1]; [3],"0.155 µM [falling, full curve]"
same,AC50,[1]; measured here: PEO4 viability,"0.195 µM [falling, full curve]"
same,AC50,[2]; [4],"0.332 µM [falling, full curve]"
same,AC50,[2]; [5],"0.332 µM [falling, full curve]"
C[C@@H]1O[C@@H](O[C@@H]2C=C3CC[C@@H]4[C@H](CC[C@]5(C)[C@@H](c6ccc(=O)oc6)CC[C@]45O)[C@@]3(C)CC2)[C@H](O)[C@H](O)[C@H]1O,AC50,[1]; [3],"0.049 µM [falling, full curve]"
same,AC50,[1]; measured here: PEO4 viability,"0.0155 µM [falling, full curve]"
Cn1cc(C2=C(c3cn(C4CCN(Cc5ccccn5)CC4)c4ccccc34)C(=O)NC2=O)c2ccccc21,AC50,[1]; [3],"30.9 µM [falling, single point]"
same,AC50,[1]; measured here: PEO4 viability,"6.16 µM [falling, partial curve]"
same,z-score,[2]; [6],0.376
same,z-score,[2]; [7],-0.402
same,AC50,[2]; [4],"5.26 µM [falling, full curve]"
same,z-score,[2]; [8],0.385
same,AC50,[2]; [5],"11.8 µM [falling, full curve]"
O=C(N[C@@H](COc1ccc2[nH]c(=O)[nH]c2c1)c1ccccc1)c1cccn(Cc2ccc(F)c(F)c2)c1=O,AC50,[1]; [3],"12.3 µM [falling, partial curve, poor fit]"
same,AC50,[1]; measured here: PEO4 viability,"12.3 µM [falling, partial curve]"
same,z-score,[2]; [6],0.431
same,z-score,[2]; [7],-1.9
same,AC50,[2]; [4],"33.2 µM [falling, single point]"
same,z-score,[2]; [8],-0.76
same,AC50,[2]; [5],"26.4 µM [falling, single point]"
C[C@](O)(COc1ccc(C#N)cc1)C(=O)Nc1ccc(C#N)c(C(F)(F)F)c1,AC50,[1]; [3],"17.4 µM [falling, single point]"
same,AC50,[1]; measured here: PEO4 viability,"24.5 µM [falling, single point]"
same,z-score,[2]; [6],0.534
same,z-score,[2]; [7],0.239
same,AC50,[2]; [4],"33.2 µM [falling, partial curve, poor fit]"
same,z-score,[2]; [8],0.238
CC1(C)C(=O)N(c2ccc(C#N)c(C(F)(F)F)c2)C(=S)N1Cc1ccc(-c2cn[nH]n2)cc1,AC50,[1]; [3],"17.4 µM [falling, single point]"
same,AC50,[1]; measured here: PEO4 viability,"21.9 µM [falling, single point]"
CC(C)(O)/C=C\C(=O)[C@](C)(O)[C@H]1[C@H](O)C[C@]2(C)[C@@H]3CC=C4[C@@H](C=C(O)C(=O)C4(C)C)[C@]3(C)C(=O)C[C@@]12C,AC50,[1]; [3],"0.776 µM [falling, full curve]"
same,AC50,[1]; measured here: PEO4 viability,"0.0871 µM [falling, full curve]"
O=C(O)CNC(=O)C1C(=O)N(C2CCCCC2)C(=O)N(C2CCCCC2)C1=O,AC50,[1]; [3],"21.9 µM [rising, partial curve, poor fit]"
same,AC50,[1]; measured here: PEO4 viability,"4.9 µM [rising, partial curve]"
COc1cccc2c1C(=O)c1c(O)c3c(c(O)c1C2=O)C[C@@](O)(C(=O)CO)CC3OC1CC(N2CCOC(OC)C2)C(O)C(C)O1 (some centres undefined),AC50,[1]; [3],"0.0044 µM [falling, full curve]"
same,AC50,[1]; measured here: PEO4 viability,"0.0087 µM [falling, full curve]"
C[C@@H]1CN(Cc2ccc(F)cc2)CCN1C(=O)COc1ccc(Cl)cc1NC(N)=O,AC50,[1]; [3],"1.1 µM [falling, partial curve]"
same,AC50,[1]; measured here: PEO4 viability,"4.36 µM [falling, full curve]"
Cc1ccccc1-n1c(Cn2ncc3c(N)ncnc32)nc2cccc(C)c2c1=O,AC50,[2]; [4],"0.0526 µM [falling, full curve]"
same,AC50,[2]; [5],"0.296 µM [falling, full curve]"
C/C1=C/C[C@@H](/C(C)=C/c2csc(C)n2)OC(=O)C[C@H](O)C(C)(C)C(=O)[C@H](C)[C@@H](O)[C@@H](C)CCC1,AC50,[1]; [3],"0.0436 µM [falling, full curve]"
same,AC50,[1]; measured here: PEO4 viability,"0.0174 µM [falling, full curve]"
C[C@@]12OC(=O)[C@]1([C@@H](O)[C@@H]1C=CCCC1)NC(=O)[C@@H]2CCCl,AC50,[1]; [3],"0.0977 µM [falling, full curve]"
same,AC50,[1]; measured here: PEO4 viability,"0.0309 µM [falling, full curve]"
